T1: Cynomolgus monkey FGFR4 (cynomolgus monkey)
T1 chain: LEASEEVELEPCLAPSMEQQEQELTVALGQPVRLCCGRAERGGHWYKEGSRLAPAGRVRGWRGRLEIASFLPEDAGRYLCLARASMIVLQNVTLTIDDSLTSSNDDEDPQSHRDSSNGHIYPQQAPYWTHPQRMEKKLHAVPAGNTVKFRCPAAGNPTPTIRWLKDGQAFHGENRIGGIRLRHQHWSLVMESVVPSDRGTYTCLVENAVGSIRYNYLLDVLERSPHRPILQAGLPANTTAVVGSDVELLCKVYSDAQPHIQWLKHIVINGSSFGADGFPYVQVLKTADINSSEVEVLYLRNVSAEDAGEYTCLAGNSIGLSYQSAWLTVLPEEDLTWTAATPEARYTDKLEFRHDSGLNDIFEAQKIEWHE

B1: mAb 12425 (antibody, human IgG1, kappa)
heavy: QVQLLESGGGLVQPGGSLRLSCAASGFTFSDYAMSWVRQAPGKGLEWVSVIEGDGSYTHYADSVKGRFTISRDNSKNTLYLQMNSLRAEDTAVYYCAREKTYSSAFDYWGQGTLVTVSSASTKGPSVFPLAPSSKSTSGGTAALGCLVKDYFPEPVTVSWNSGALTSGVHTFPAVLQSSGLYSLSSVVTVPSSSLGTQTYICNVNHKPSNTKVDKRV[in this place human IgG1 Fc]
light: DIQMTQSPSSLSASVGDRVTITCRASQDISSDLNWYQQKPGKAPKLLIYDASNLQSGVPSRFSGSGSGTDFTLTISSLQPEDFAVYYCQQHYSPSHTFGQGTKVEIKRTVAAPSVFIFPPSDEQLKSGTASVVCLLNNFYPREAKVQWKVDNALQSGNSQESVTEQDSKDSTYSLSSTLTLSKADYEKHKVYACEVTHQGLSSPVTKSFNRGEC
notes: also called MOR12425
B2: 12425-MCC-DM1 (antibody, human IgG1, kappa)
heavy: B1 heavy
light: B1 light
modifications: DM1 on lysine residues via MCC linker (sites not specified)

What was measured:
[1] = biological target: T2, Human FGFR4 ECD (human, UniProt P22455 22-369); assay: SPR (Biacore)
T2 construct: whole entry is the construct; also called FGFR4 D1-D3 construct
Method: (§1) Subsequently, 0.078-100 nM of FGFR receptors, diluted in a 2-fold series, were injected at a flow rate of 80 μl/min for 7 min over both reference and test flow cells. Dissociation of the binding was followed for 10 min using HBS-EP⁺ supplemented with 0.5 mg/ml of BSA and 10 μg/ml heparin as running buffer. After each injection cycle, the chip surface was regenerated with 10 mM glycine, pH 2.0 at 60 μl/min for 70 s.

[2] = biological target: T1, Cynomolgus monkey FGFR4; assay: SPR (Biacore)
Method: as §1

[3] = biological target: T3, Mouse FGFR4 (mouse, UniProt Q03142 17-366); assay: SPR (Biacore)
T3 construct: Recombinant tagged ECD
Method: as §1

[4] = biological target: T4, Rat FGFR4 (rat, UniProt Q498D6 17-367); assay: SPR (Biacore)
T4 construct: Recombinant tagged ECD
Method: as §1

[5] = biological target: T2, Human FGFR4 ECD; assay: SPR (Biacore), antibody captured, FGFR ECD as analyte
Method: The immobilization level and analyte interactions were measured by response unit (RU).
as §1

T4 sequence (Q498D6 17-367 limits assumed): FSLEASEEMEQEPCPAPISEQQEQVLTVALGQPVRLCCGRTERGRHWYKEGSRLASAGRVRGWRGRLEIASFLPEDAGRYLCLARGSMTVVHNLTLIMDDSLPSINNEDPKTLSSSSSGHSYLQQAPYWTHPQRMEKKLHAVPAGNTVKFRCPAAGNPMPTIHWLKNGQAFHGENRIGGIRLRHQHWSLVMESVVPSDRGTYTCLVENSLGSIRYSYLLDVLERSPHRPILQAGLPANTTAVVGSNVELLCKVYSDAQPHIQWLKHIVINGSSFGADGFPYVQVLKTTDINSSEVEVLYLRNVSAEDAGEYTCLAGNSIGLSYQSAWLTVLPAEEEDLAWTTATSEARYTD
T3 sequence (Q03142 17-366 limits assumed): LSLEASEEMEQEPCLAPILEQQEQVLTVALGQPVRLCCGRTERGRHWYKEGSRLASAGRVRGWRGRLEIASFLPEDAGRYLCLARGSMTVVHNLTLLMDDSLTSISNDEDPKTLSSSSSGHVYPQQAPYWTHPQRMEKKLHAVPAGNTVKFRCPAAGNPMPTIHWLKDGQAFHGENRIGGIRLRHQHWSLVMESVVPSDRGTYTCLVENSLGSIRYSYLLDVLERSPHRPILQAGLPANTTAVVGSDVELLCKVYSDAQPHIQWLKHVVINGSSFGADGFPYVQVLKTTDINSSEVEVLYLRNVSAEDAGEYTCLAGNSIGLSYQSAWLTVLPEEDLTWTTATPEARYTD

| Binder | Kd [1] | Kd [2] | Kd [3] | Kd [4] | Kd [5] |
| --- | --- | --- | --- | --- | --- |
| B1 | 4 nM | 2.3 nM | 3.6 nM | 5.2 nM | 3.9 nM |
| B2 | 4.6 nM | 2.1 nM | 2.2 nM | 4.2 nM | – |

Reference: patent publication US20140301946A1 (Novartis, published 2014)
